# This is one part of the list. At the low end of the ranking the order means little. The protein was read in a cell extract, so binding may be indirect.
# Molecular target: T1, HNF4alpha2 (COS-7 nuclear extract) (UniProt P41235)
# T1 sequence: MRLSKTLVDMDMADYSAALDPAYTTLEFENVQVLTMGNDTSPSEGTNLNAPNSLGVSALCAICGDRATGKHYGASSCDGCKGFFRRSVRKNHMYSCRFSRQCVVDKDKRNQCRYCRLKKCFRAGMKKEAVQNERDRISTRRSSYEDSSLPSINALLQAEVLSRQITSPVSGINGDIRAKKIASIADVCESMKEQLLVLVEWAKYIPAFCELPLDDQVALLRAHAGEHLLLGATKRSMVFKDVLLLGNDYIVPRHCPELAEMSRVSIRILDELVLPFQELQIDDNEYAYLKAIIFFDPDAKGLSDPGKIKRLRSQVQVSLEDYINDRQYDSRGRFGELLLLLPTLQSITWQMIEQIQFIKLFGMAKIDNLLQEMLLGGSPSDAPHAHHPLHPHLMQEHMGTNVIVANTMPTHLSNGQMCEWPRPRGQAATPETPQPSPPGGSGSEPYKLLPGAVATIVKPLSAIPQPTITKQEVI
# Assay: protein-binding microarray
# Conditions: COS-7 nuclear extract on double-stranded Agilent 4x180k PBM; binding buffer, salt, pH and temperature not given; high values mean tight binding; double strand, one strand shown; sequences stand for … in …GCCTAGGGAGATTAGAGTATCGGTCGA
row,Sequence,binding signal (log2 normalized intensity)
1,GCTCCTATCATCCCTATCACTCAAGAAATG,0.99
2,TCCTACTTCTGTTTAAACTGATAACCTTGC,1.49
3,CTTTATTATCCCAGTAGAGAAACAAATCTG,0.696
4,AGACTCCTGCATATCCTGACTGCTGACCTT,3.33
5,GGGGCCTTGCAATGAGGCGACATCAAAGCA,-1.24
6,ATTCCCTCTAATCTGGGACAAGGGGGAGGA,-1.13
7,GTGTAAACTTTGCAGCAGATAATTACCTGG,-1.1
8,TTCCTTATCTGTAAAATGGACATAGTAACA,1.41
9,CAGCATAGGGCCACTTTGTCCTTCACTTGT,1.5
10,AGGGGTTAGGTAAACATTTGTTGAGTGAGT,1.27
11,AACCAAATGCACACACAATAAGGACTTTGG,3.35
12,AAGTCAATGAGCATTTCACAATTCGTTCAT,-0.141
13,GGTTCCAGCATGGACTTCACAGCCTGTTAG,0.0676
14,ATCAAAGGCCTTCCTATCTCTACTTGCCGA,-1.16
15,TTTGCAGAGGGAAAGCGAGAGAGCCTGGAC,-1.14
16,ACTAAAGGTTAAACATGTACTCTGTACTCC,2.66
17,TCCCCACCCGGTGTGCGTGGGTGGGAAATC,1.7
18,ATCAAGATCACTGCCTTGGAGGCACTCCCA,-1.16
19,TCAGGTCCAAGGAACCTCACGCGCTCCCTG,-0.989
20,AAAAGCCGGGGAAAGGGAAAAAGGGAGATA,-1.18
21,CCTAAACCTGCAAACCTTTGACCTTTCCAT,5.52
22,GAGGTTCCTGGAACTCTGACCTTTGCCCCC,10.5
23,CAAGAGGACAAGGTTCAAAAGCTACCTGTT,1.07
24,AAAAGGCCCCAGGGATTGCACAGGATGCCA,-1.15
25,AGCTCTTCTGTGCCTCCCAAATGCAAACAG,1.32

row,Sequence,binding signal (log2 normalized intensity)
1,CGCTGCTTCCACCAGGGCTAGACCCGTCAG,-1.13
2,GAGCCCAGACAAGCATTCTGCTGAAGGAGC,-1.13
3,TGCCTGGCTCAGCATTCTGAGGGCCTCCAA,-1.02
4,AATCGACCTTTAGCACCGTAAGAGAGTATT,3.82
5,GCTGATTGCTCAACCCAAAGCATGTCCAGA,-1.17
6,TCCTTTTCTTTCACATACAAAATTTACTTT,1.58
7,CATCATAGTTATTCAGTACAGACTTGTGTA,1.98
8,ATGAATACATGAGTGATCCTGAAAACAAAT,-1.1
9,TACCAGTAGGACCACATTCAATCATGAACA,-1.08
10,TGTGCTGCCCTCTTGTGGCCATTTGGGAAA,1.34
11,TCCACTTCTGAGGAGAAGAATGAAAGCCAA,-1.09
12,AGTGTGTTGACATTTGAACCCAACCGTCCA,2.97
13,TGCTAAGATGGTCTCAGGTGGAGATAAGGA,0.439
14,GGGAGAAACCTGCCAGGTGGACCAAAACAC,-0.489
15,CAGGAAGTTCAGGCCTCGGCTTCATTAGCA,-1.17
16,CTCTGATTCTCCAGTCCGAAGGTCCACCCG,3.01
17,CTTGTTATATTGGATAGTGCCTTTTCTAAT,1.13
18,TGCGCTGGTTTTATGGTGTCTTATCTTCCT,1.78
19,CTCACAGAGTGGAGTCTTCCGTTTGATAGA,-0.436
20,CCGGTTTGGGGACTTCTCCCCAGAGCCTCT,-1.13
21,CTACAGGAGAACAAAGTTCACCTTTCCCTT,3.1
22,CATCTCGTCAAGGTGAAAAGCCTTTTGAAG,0.675
23,ACGCCCACTGCTTTGTTCCCTGGCTCACTG,-1.2
24,GTTAGAACAAAGTCCAAATTCCTAACTATG,3.04
25,GTCTGGGAAAGCTGCAGGCATGAGAGGTGC,-1.09

row,Sequence,binding signal (log2 normalized intensity)
1,TGGGCGAGCCCTCTGATCTGACCCCTTCTT,4.91
2,GGAACACAAAGAAAGCCAAAGTTCACCCTT,2.13
3,ATGAGGCGGTTCATCCAACAGGTGAGGTGG,-0.172
4,GACATTCCAGCCTCCAGCTACTCACTCTTC,-1.05
5,ATATCCTGACTGCTGACCTTTAAGCCTATA,3.85
6,CAACCGGAAGTGGCTAGAGGTCGCGAGAGA,-0.757
7,CTTTCCCTCCACCAAGTTTCCCACACTCAG,1.77
8,GTGCTTCTGGGGTATAAAGGTCAGGGATAG,3.72
9,TGGTGTTAAATCCTATCCTAGGGTTAAAGT,2.42
10,CTCATGAAGATTCTTTGGTTGGGAATAACA,1.05
11,CAGCAGGGTCTTTTTGACCTGTATCTTGTG,2.86
12,ATCAAGTCCGAACTCACTACAAACGCCTCT,-1.15
13,AATTCCAGGGCTGGGTCCAGGAATGTGCTA,-1.09
14,AACCCAGGCAATGACTCCAAAGTTCAAACT,3.35
15,CCATTTCCCATCCCCAGAGCCCCCTTGATG,4.82
16,AAGTGGCAATAAACTCCGTTATCACTCCTG,-0.915
17,CAGAACAGGCTGTTTTCCTATAGATTTGTT,0.233
18,AGAGAGCAGGAGCCACCTGTCACTCAATGC,-1.23
19,TGTTTCCACTCCAGCCTCTCCACCAGGGGA,-1.06
20,CTGTGAAAATTGGTACTGGACATGGTCTAA,1.42
21,AGTCAAAGGTCCCCACCACAAAGGCCAGAG,2.72
22,CATAAAGGACTTTCAACCCTGTGATGACCC,4.21
23,GAGTGGGATGGCCATTGTTCATACTGCAGC,-0.845
24,CACAGTATGTTAATGGCAGAATCAAAGGTC,4.36
25,CAACACACCTGTGGGTAATTAACTCCCCCT,3.09

row,Sequence,binding signal (log2 normalized intensity)
1,GGGTGGTTCATTTGCACTTGTTTTTTCAGG,1.48
2,GCGGGGAAAAGGGAGTAAAGGTCACGCAGG,3.72
3,GTTCTGTGGAATTTGTGCTTATTTCCCATC,1.05
4,TAACTGTGCTTCTGGGGTATAAAGGTCAGG,4.92
5,GGGTCCTGGCAGCACCTGAAGAATTTGGAC,1.23
6,GGCTCCCAGTGGCCCCTGAGCACTGTCTCA,-1.15
7,GCTGTGATGAGGCCAGCAGGGTGCCCCCTC,3.33
8,GCATACGCTAGCTTTCTGGTCTTTGTTCTT,1.88
9,ATCTCTTTGACACAAAGGGAGGCCTAGACA,-1.18
10,CTCTCTGTATTCCCTCTCTTCAGAATGGCC,1.63
11,CCTCTTTGAGTCTGGTGTTCTCTTGGCCAA,1.75
12,TTTAAAAACTTATCTTGTGACCTTTGACTC,8.33
13,GAGCACTTTTGGTATGCAAGGCATGGTGCT,-0.975
14,CAGCTGCGCGGCCTCCCCAGAGGCTGGTCA,-0.994
15,CCACAGGTCAATCCAGGTTGCTGCCTAGTT,-1.05
16,TAAAGGGGATTTTCTCAGCTCTCCTCTGCC,-1.06
17,TGTACACAGTTCAAAGGGCAGACAGGAACA,3.1
18,CATTTCTGTATCCCTGTTATCTGGCAGATA,0.925
19,GACTTCAAAGGCATTTCTGGACTTGGATCA,3.31
20,GGGAGTAGGGACAGCTAGTCTAGACTTTGC,3.32
21,TCAGGAATCGCATTGCAAAATCCATCTAAA,-1.1
22,CAGGTGTAAAGTCTGGCATACAGGGTCCAA,2.87
23,GTTAAAGTCCACATTCTTTAGCATATTACA,0.789
24,ATGGGCAGTCCCTATAGCCTCACTTGCTGA,-1.12
25,TGTCCAAGGGTCACTCGACATTCATCATGA,1.77

row,Sequence,binding signal (log2 normalized intensity)
1,GGCACAGGAACCTGTTTTACAGGACATAGT,-1.27
2,TACTAATCCTCTTCTGTCCTCCTGTGGCCA,0.558
3,GGCTCAGGAGAAGGGCCCATGGGCTTCAGG,-1.06
4,GTGAGAACAGAGTCTCCGAGGAACCCAGAC,-1.16
5,GAGCCTAGGAGTTCAATGCTTCAGTGAGCC,-1.07
6,TAACCCATCTGGGGAAAGTGCAAGGGCCCA,-1.11
7,TTTCAACTGCAGGGGGGTGGGCACCCCTGC,-1.25
8,AATTACCATTCTTGAGGACAGGCCAAATCC,0.0816
9,TATGTGGTGGGTGTGGTGATGGCAGGAGTC,1.39
10,GACCTCTGCCCTACTGTATATCCTGACACA,2.33
11,AGACATTGGCTAAATCATGGGGAGCATCTA,-0.871
12,GCTGCAGGAGAGATGGTCAGATTTTATTTA,-0.201
13,AACTTTGAAACAAGCCCATCTTCCAGAAAA,-1.05
14,TGGCAAATATCAGCATGGTATGTGGCTTGC,0.594
15,CAGTATAAACAACACAGAACTAGCCAGACC,-1.16
16,AATTGCTACTTCCGGCGTCGATTAGCTGGG,-0.0901
17,CTCATGCTAAAAGTTGAATTCTTGACTTTG,0.255
18,ATATCTTTGTCTCAGGAACTTTGTTTGTGT,2.49
19,TAACCCCAGTTTAGCAATTTGCTCTCTGCT,-0.945
20,AGCTATTGCTCTGCATGGATTAGCCAGCTA,-1.21
21,AAGTGGAGATTTCAGCCGCTTTGAGGTCAA,1.57
22,CAGCACTGGGTGGGGATAAGAAAAGATCAA,-1.1
23,TGCACAACGACCCTTGCTCTGTTTTCTGAC,1.89
24,TTGTTCCATGCCACAGAATCGCCCCACCCT,4.29
25,TTCCTGCATTAACATCAACATGGACTTTGA,8.62

row,Sequence,binding signal (log2 normalized intensity)
1,CTGTAACACAGTTGCACTCACTAGCATTAG,-0.831
2,TTCAAGGTCCAGCCTACCCACCCACACCTC,3.33
3,CCCCCACCCTGTGTCAGCATCTAAACCTCT,2.29
4,TCGCACGGCAGAACTGGTGACCGGACACAA,-1.05
5,AGGGATTCCTGAAGATCGCAGACTTTGGAC,5.66
6,TTCTAACCAATGCAGCTGGGAGATAAGATA,-0.146
7,TGGCTGCAGAGTGGGAGGCCAAGAGATAAA,-0.785
8,CCCAAACGAATGGGCAAAACATTCCTAAAC,-1.24
9,CAGATGGATTGATAGACTTATCTCAGCCTG,-0.761
10,GGTTTTAGGCTATCAGACAGCCACACTTTA,-1.11
11,GGGGAGCGTAAAACCACTGGCCCATTAGAA,-1.08
12,ACAGCTCCTGAGTCCACATGAGCCTCTTTA,-1.18
13,TTTGACTGGTGTGAGGTCAGTTGATAAACA,1.71
14,TGTGTTTCCTGGATTGTGAAACACAGGACT,0.725
15,ATCCAAAGGTCAGTGACAAATGTCAGACAA,2.35
16,CTAATGGAGAGGATGGGGACAAAGGTCAAG,7.24
17,CGCCAGGCGGGTTCTGCCATCTCGCAGAAA,-1.16
18,TGTCCTGTGATTAAGGTCAATGGGAAACTA,1.01
19,CCCCCTTTTGCTTTCCGTTAGGCTACAGTG,1.03
20,GCCTAGGTGACAAGGAAAACTACACTCTTG,-1.19

# — PMC10726135
